Measured values: PubChem BioAssay AID488969 (Vanderbilt High Throughput Screening Facility, 2010)
Over roughly 110,000 compounds, “z-score” has its median near -0.1; the highest 2% begin near 2. Some of the results follow. Calls of active or inactive are those of the source.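 The calls were made as follows: active = z-score in the third read window above 3 or below -3; inactive = the rest.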

Target: Metabotropic glutamate receptor 8 (Rattus norvegicus) (UniProt P70579)
Experiment: rat mGluR8 modulators via GIRK flux, primary screen, cell-based, thallium flux, HTS (AID 488969)
Conditions: HEK293 rat mGluR8, GIRK (G protein-gated inwardly rectifying potassium channel) thallium flux, FluoZin2; at 10 µM; stronger effect = higher value; submaximal glutamate (EC20) added with thallium

Sequence of UniProt P70579 (P70579 whole entry, looked up): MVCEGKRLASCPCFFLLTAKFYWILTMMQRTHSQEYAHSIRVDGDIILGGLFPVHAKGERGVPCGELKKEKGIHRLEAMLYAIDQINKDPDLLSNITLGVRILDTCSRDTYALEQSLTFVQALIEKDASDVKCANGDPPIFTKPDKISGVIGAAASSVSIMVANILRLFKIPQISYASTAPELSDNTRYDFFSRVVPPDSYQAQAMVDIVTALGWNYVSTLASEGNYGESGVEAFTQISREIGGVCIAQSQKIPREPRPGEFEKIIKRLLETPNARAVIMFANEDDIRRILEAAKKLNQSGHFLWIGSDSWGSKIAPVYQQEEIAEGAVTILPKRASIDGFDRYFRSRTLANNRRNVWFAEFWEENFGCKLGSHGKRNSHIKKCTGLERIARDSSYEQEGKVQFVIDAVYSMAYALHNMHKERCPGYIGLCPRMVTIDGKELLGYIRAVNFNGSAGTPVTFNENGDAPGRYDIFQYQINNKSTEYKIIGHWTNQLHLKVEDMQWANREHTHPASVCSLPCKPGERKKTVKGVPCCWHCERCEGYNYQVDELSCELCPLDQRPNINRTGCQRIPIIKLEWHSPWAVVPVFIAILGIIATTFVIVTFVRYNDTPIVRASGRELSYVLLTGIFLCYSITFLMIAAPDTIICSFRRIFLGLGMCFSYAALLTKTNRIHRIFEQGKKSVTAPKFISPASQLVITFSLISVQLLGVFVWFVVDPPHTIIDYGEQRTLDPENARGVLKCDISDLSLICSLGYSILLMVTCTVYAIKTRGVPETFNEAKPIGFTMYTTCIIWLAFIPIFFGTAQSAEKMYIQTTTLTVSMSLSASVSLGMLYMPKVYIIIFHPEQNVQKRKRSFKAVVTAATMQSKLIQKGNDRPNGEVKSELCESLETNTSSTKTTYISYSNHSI

| Structure (SMILES) | z-score |
| --- | --- |
| CCN(CC)C(=O)CSc1ncnc2c1nnn2-c1ccc(OC)cc1 | -0.262 |
| O=C1CC(c2ccc(F)cc2)Cc2nc(N3CCOCC3)ncc21 (stereo unspecified) | -0.0725 |
| C=CCNC(=S)NNC(=O)c1ccc2c(c1)OCO2 | -0.78 |
| O=C(NCCc1ccccn1)c1ccc(S(=O)(=O)N2CCCCCC2)cc1 | -0.0566 |
| Cc1ccc(N2C(N)=NC(N)=NC23CCCC3)c(C)c1 | 0.0847 |
| COc1ccc(OC)c(C(=O)C2COC(=O)C2)c1 (stereo unspecified) | 0.255 |
| Cc1cc(C(F)F)n2nc(C(=O)Nc3sc4c(c3C(N)=O)CCC4)nc2n1 | -0.336 |
| COc1cccc2cc(/C(C)=N/Nc3nc(-c4cc(C)ccc4C)cs3)c(=O)oc12 | -0.291 |
| COC(=O)c1cc(C(C)=O)n2ccccc12 | -0.393 |
| Cc1cccc(C)c1NC(=O)N1C(C(=O)O)CSC1C(=O)O (stereo unspecified) | 0.243 |
| CCOc1cc(C2C(C#N)=C(N)Oc3n[nH]c(CC)c32)ccc1OCCN1CCOCC1 (stereo unspecified) | 0.000546 |
| CCC(CC)C(=O)Nc1cc(C(=O)OC)ccc1C(=O)OC | 0.417 |
| Cc1ccc2nc(-c3ccc(NC(=O)C4CCCO4)cc3)[nH]c2c1 (stereo unspecified) | -0.257 |
| Fc1cnc(N2CCOCC2)nc1NCc1ccccc1 | 0.0946 |
| COc1ccc(Oc2cc(C(F)(F)F)cnc2C(N)=O)cc1 | -0.0956 |
| COc1cccc(-n2c(SCC(=O)NCCC3=CCCCC3)nc3n[nH]c(C)c3c2=N)c1 | active: 8.62 |
| CCOC(=O)c1c(C)c(C(=O)NCCc2ccc(S(N)(=O)=O)cc2)c(C)n1CC | -0.0818 |
| O=C(O)c1ccc(N=NN2CCOCC2)cc1 | 0.0304 |
| Cc1nc2ccccc2n1S(=O)(=O)c1ccc(Br)cc1 | 0.00472 |
| Cc1cccc(OCC(O)Cn2c(-n3nc(C)cc3C)nc3c2c(=O)[nH]c(=O)n3C)c1 (stereo unspecified) | -0.0623 |
| COCCNCCOCCOc1cccc(OC)c1 | -0.936 |
| COC(=O)c1c(C(=O)OC)c2cc(C(=O)c3ccccc3)ccn2c1Cl | -1.08 |
| O=S(=O)(c1ccc(Cl)cc1)N1CCSC1c1ccco1 (stereo unspecified) | -1.54 |

| Structure (SMILES) | z-score |
| --- | --- |
| CC(C)(C)c1ccc(C(=O)N/C(=C/c2cccs2)C(=O)NCc2ccco2)cc1 | 0.217 |
| N#C/C(=N\Nc1ccc(Cl)cc1)C(=O)c1ccccc1 | active: -3.03 |
| CCc1cc2cc(C(=O)N3CCN(Cc4ccccc4)CC3)sc2s1 | 1.1 |
| COCC(=O)N(CCc1ccc(OC)cc1)Cc1nc2ccccc2c(=O)[nH]1 | -0.025 |
| Cc1cc(NC(=O)CCC(=O)N(CC(=O)NC2CCCC2)c2cccc(C)c2C)no1 | -0.25 |
| c1ccc(OCCCCn2cnc3ccccc32)cc1 | -0.677 |
| COc1ccc(C(=O)NC(Nc2ccc(C)cc2)C(Cl)(Cl)Cl)cc1 (stereo unspecified) | -0.529 |
| O=C(CSc1nc(-c2ccc(F)cc2)cs1)N1CCc2ccccc21 | -0.119 |
| C=CCn1c(=O)[nH]c2cc(C(=O)N3CCN(c4cc(C)ccc4C)CC3)ccc2c1=O | -0.0336 |
| COc1ccc(CCN2C(=O)C3C4CC(C5C(C(=O)O)=NOC45)C3C2=O)cc1OC (stereo unspecified) | 1.24 |
| CCN1CCN(c2nc(Nc3ccccc3)nc(N)c2[N+](=O)[O-])CC1 | -0.154 |
| CCCCC(=Nc1ccccc1OC)C1=C(O)CC(c2ccccc2)CC1=O (stereo unspecified) | 0.397 |
| CCC1C(C#N)=C(N)OC2=C1C(=O)CC(C)(C)C2 (stereo unspecified) | -0.381 |
| Cc1ccc(SCC2CNc3nc4ccccc4c(=O)n32)c(C)c1 (stereo unspecified) | -0.163 |
| O=C(COc1ccccc1)NC(NC(=S)Nc1ccccc1O)C(Cl)(Cl)Cl (stereo unspecified) | 0.583 |
| COc1ccc(N2C(=NC(C)=O)SC3CS(=O)(=O)CC32)cc1OC (stereo unspecified) | 0.218 |
| Cc1cc(C)c2c(CC(=O)NCc3ccco3)coc2c1 | -0.311 |
| Cc1cc(C)n(-c2nnc(C)n2/N=C/c2ccccc2OCc2ccccc2Cl)n1 | active: -3.41 |
| COc1ccc(NC(=O)c2cc3n(n2)C(C(F)(F)F)CC(c2ccc(OC)cc2)N3)cc1 (stereo unspecified) | -0.143 |
| COc1ccc(NC(=O)CC2Sc3ncnn3C2=O)cc1 (stereo unspecified) | 0.561 |
| CCS(=O)(=O)N1CCCC(C(=O)NCCCN(C)Cc2ccccc2)C1 (stereo unspecified) | 0.505 |
| Cc1cc(OCC(=O)NCCCN2CCOCC2)cc(C)c1Cl | 0.729 |
| CC1CN(C(=S)SCCN2Cc3ccccc3C2=O)CC(C)O1 (stereo unspecified) | -0.252 |

| Structure (SMILES) | z-score |
| --- | --- |
| COc1ccc(NCC(=O)Nc2ccc(C#N)cc2)cc1Cl | -0.325 |
| O=C1C2CCCN2C(c2ccc(F)c(F)c2)N1c1cccc(Cl)c1 (stereo unspecified) | -0.234 |
| Cc1ccc(S(=O)(=O)NCc2nc3ccccc3[nH]2)cc1 | -0.359 |
| CC(C)(C)Nc1nc(Cl)nc(NC(C)(C)C)n1 | -0.0263 |
| Cc1c(NC(=O)c2ccccc2NS(=O)(=O)c2ccc(F)cc2)c(=O)n(-c2ccccc2)n1C | -0.385 |
| COc1ccc(C(=O)NCc2ccccc2)cc1S(=O)(=O)N1CCCc2ccccc21 | -0.572 |
| CCCCc1nc(NCCN2CCOCC2)c(C#N)c2c1COC(C)(C)C2 | -0.414 |
| O=C(Cn1nnc(-c2ccccc2Cl)n1)NCc1ccc2c(c1)OCO2 | -0.0315 |
| C=CCOc1ccc(/C(CC)=N/O)c(OC)c1 | 0.337 |
| O=C(Cn1c(=O)sc2ccccc21)Nc1ccccc1C(=O)O | -0.0627 |
| Oc1ccccc1/C=N/n1cnnc1 | 0.0162 |
| COc1ccc(S(=O)(=O)N(C)CC(=O)NCc2ccco2)cc1 | -0.29 |
| Cc1cccc(CCNC(=O)C2CCCN(S(=O)(=O)c3cnc[nH]3)C2)c1 (stereo unspecified) | 0.438 |
| Cc1cccc(NC(=O)NCc2ccccn2)c1 | -0.194 |
| Cc1cc2cc(CN(CC3CCCO3)C(=O)c3cnccn3)c(=O)[nH]c2cc1C (stereo unspecified) | -0.113 |
| COc1ccc(N2Cc3cccc(C(=O)N4CCN(C(=O)c5ccco5)CC4)c3C2=O)cc1 | -0.0557 |
| CCN(CC)CCn1c(=S)[nH]c2ccccc2c1=O | -2.46 |
| CC(C)Cn1nc(NC(=O)C(C)(C)C)c2cc3ccccc3nc21 | -0.625 |
| CCOc1c(Cl)cc(C(=O)NCCN2CCCCC2)cc1Cl | 1.48 |
| COc1ccc(C(=O)NC(=O)COC(=O)C2COc3ccccc3O2)cc1 (stereo unspecified) | -0.358 |
| COCCNC(=O)C(c1cccs1)N(C(=O)Cn1nnc2ccccc21)c1ccc(OC)cc1 (stereo unspecified) | 0.0248 |
| CC(=O)c1ccc2c3c(cccc13)C(=O)N(c1c(C)nn(C)c1C)C2=O | 0.156 |
| COc1ccc(-c2cnn3c4c(c(C)nc23)CCN4C2CCCC2)cc1OC | -0.282 |

| Structure (SMILES) | z-score |
| --- | --- |
| CC(C)N1C(=S)SC(C)(C)C1NO (stereo unspecified) | -0.154 |
| Cc1c(NC(=O)CCC2CCCCC2)c(=O)n(-c2ccccc2)n1C | 2.9 |
| C1CCc2c(nnc3c2-c2nonc2CC3)C1 | 1.08 |
| O=C(CC(c1ccccc1)c1ccco1)N1CCOCC1 (stereo unspecified) | -0.942 |
| O=C(CSc1nc2ccccc2n1S(=O)(=O)c1ccccc1)N1CCCC1 | 1.76 |
| COc1ccc(NC(=O)CN2CCN(Cc3ccc4c(c3)OCO4)CC2)cc1OC | 0.0642 |
| COc1ccccc1C(=O)Nc1ccc(N2CCN(Cc3ccccc3)CC2)cc1 | -0.143 |
| COc1ccc(NC(=O)Nc2nnc(C(C)C)s2)cc1 | -1.86 |
| C=CCNC(=S)Nc1sc2c(c1C(=O)OCC)CCN(C(=O)OCC)C2 | 0.145 |
| O=C(CCSc1ccc(Cl)cc1)N1CCCCCC1 | -0.316 |
| COC(=O)c1sc(NC(=O)Cc2cccs2)nc1C | 0.604 |
| COc1ccc(C(=O)OCCN2CCOCC2)cc1 | 0.338 |
| Cc1cccc2cc(COC(=O)C(C)C)c(=O)[nH]c12 | -0.479 |
| CC1(C)CC(=O)C2=C(C1)Oc1ncn(CCCn3ccnc3)c(=N)c1C2c1ccccc1 (stereo unspecified) | -1.99 |
| COc1ccc(OC)c(C2CC(=O)N3CN(c4ccccc4)CSC3=C2C#N)c1 (stereo unspecified) | -0.44 |
| CCCc1nc2sc3c(=O)n(N)cnc3c2c2c1CCCC2 | -0.191 |
| CSc1nc(N)nc(SCC(=O)CC(=O)OC(C)C)c1C#N | -0.324 |
| CN(C1CCS(=O)(=O)C1)S(=O)(=O)c1ccccc1[N+](=O)[O-] (stereo unspecified) | -0.161 |
| COc1ccc(C(=O)c2ccc(OC)c(OC)c2)cc1 | -0.149 |
| Cc1ccc(NC(=O)CN(C)C(=O)c2ccc(Cl)c([N+](=O)[O-])c2)cc1 | -0.273 |
| CCOC(=O)CNc1nc(OCC#N)nc(N2CCOCC2)n1 | -1.26 |
| CC(=O)Nn1c(COc2ccccc2C)nc2ccccc2c1=O | 0.505 |
| CCCCCc1nc2ccccc2c(=O)n1N | 0.685 |

| Structure (SMILES) | z-score |
| --- | --- |
| N#Cc1ccccc1NC(=O)Nc1ccc(Cl)cc1 | 0.331 |
| CC1CCC(=NNc2ccc(C(F)(F)F)cc2[N+](=O)[O-])CC1 (stereo unspecified) | 0.219 |
| CC(C)CSc1nc(N2CCOCC2)c2c(c1C#N)CC(C)(C)SC2 | -0.0517 |
| CC(=O)Nc1c(O)nc(SCC(=O)N2CCN(c3ccc(F)cc3)CC2)[nH]c1=O | -0.563 |
| Cc1ccc(CNC(=O)C2CC(c3ccccc3[N+](=O)[O-])=NO2)o1 (stereo unspecified) | -0.211 |
| Cc1ccnc(NS(=O)(=O)c2ccc(NC(=O)C34CC5CC(CC(C5)C3)C4)cc2)n1 | -0.303 |
| CC(C)(C)NC(=S)Nc1ccc(Nc2ccccc2)cc1 | -0.0456 |
| Cc1ccccc1-n1c(=O)c2ccccc2n2cnnc12 | -0.293 |
| CC(=O)c1cccc(N(CC(=O)N2CCCC2)S(C)(=O)=O)c1 | -0.101 |
| O=C1c2ccccc2C(Nc2ccccc2F)N1c1cccnc1 (stereo unspecified) | -0.13 |
| COc1cc(NC(=O)CN(C)S(=O)(=O)c2ccc3c(c2)CCC(=O)N3)cc(OC)c1 | -0.176 |
| Cc1ccc(C)c(N(CC(=O)Nc2ccccc2C(=O)NCc2ccco2)S(=O)(=O)c2ccccc2)c1 | -1.56 |
| O=C(NCC1CCCO1)C(c1cccs1)N(C(=O)c1ccc(CN2CCOCC2)o1)c1ccc(Cl)cc1 (stereo unspecified) | -0.115 |
| CN1c2ccccc2C(C)(C)[C@]12C=Cc1cc(O)ccc1O2 | -0.11 |
| CCc1ccc(C(C(=O)NC(C)(C)CC)N(Cc2ccco2)C(=O)Cn2nnc3ccccc32)cc1 (stereo unspecified) | -0.412 |
| Cc1ccc(C(=O)NCC(=O)Nc2ccccc2C(F)(F)F)cc1 | -0.238 |
| Cc1cc(NC(=O)CSc2nc3ccccc3n2CC(=O)N2CCC(C)CC2)no1 | -0.223 |
| COc1ccc(Cn2c3ccc(OC)cc3c3nc4ccccc4nc32)cc1 | -0.12 |
| O=c1c(-c2ccc(Oc3ccccc3)cc2)[n+]([O-])c2ccccc2n1OCc1ccccn1 | -0.0632 |
